About 550 (1.1%) of roughly 48,000 compounds were called active. About 4% were inconclusive and are not listed. Rule as the data show it: active = potency below about 15 µM; inconclusive = mostly about 16 µM to 33 µM; inactive = weaker than that. The list shows a part of the results.
target: Lysosomal acid glucosylceramidase (Homo sapiens) (UniProt P04062); assay: Glucocerebrosidase; settings: purified enzyme, resorufin glucoside fluorescence (screen aimed at inhibitors), 20 min;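 also: the screen sought inhibitors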
How it was run: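 Wild-type enzyme at 0.2 nM final in 50mM citric acid/KH2PO4, 10mM sodium taurocholate, 0.01% tween-20, pH 5.9, with resorufin beta-D-glucopyranoside at 30 uM final. Compounds titrated, 20 min at RT, red fluorescence read; AC50 from titration.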
Potency is read from the fitted curve at half-maximal effect.

UniProt P04062, sequence (P04062 whole entry, looked up): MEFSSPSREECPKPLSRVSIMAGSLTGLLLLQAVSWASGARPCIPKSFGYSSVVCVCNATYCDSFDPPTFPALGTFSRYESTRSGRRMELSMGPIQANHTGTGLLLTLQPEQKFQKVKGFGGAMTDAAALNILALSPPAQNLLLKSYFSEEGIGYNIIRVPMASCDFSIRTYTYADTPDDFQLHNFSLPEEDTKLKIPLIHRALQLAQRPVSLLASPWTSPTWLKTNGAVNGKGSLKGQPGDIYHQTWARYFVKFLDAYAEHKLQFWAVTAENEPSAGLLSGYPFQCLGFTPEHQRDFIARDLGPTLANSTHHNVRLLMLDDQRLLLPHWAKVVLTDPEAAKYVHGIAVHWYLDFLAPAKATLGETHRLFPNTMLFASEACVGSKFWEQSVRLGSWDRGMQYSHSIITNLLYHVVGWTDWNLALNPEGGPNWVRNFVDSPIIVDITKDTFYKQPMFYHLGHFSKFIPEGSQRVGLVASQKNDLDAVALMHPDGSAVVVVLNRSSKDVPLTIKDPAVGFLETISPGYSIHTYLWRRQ

Potency, inactive:
COc1ccc(S(=O)(=O)N(C(C)=O)c2ccc3oc(=O)sc3c2)cc1 > 76.9 µM, O=C(CN1C2CCC1CC(NC(=O)Nc1ccccc1)C2)NCc1ccco1 (stereo not given) > 76.9 µM, CCN(CC)S(=O)(=O)c1cccc(C(=O)Nc2cc(C)nn2-c2nc(C)cc(C)n2)c1 > 76.9 µM, CC(C)c1ccc(NC(=O)N2CCC(c3nc4ccccc4o3)CC2)cc1 > 76.9 µM, Cc1c(C(=O)N2CCN(c3ccccc3F)CC2)sc2nc(-c3ccccc3)cn12 > 76.9 µM, COc1cc(OC)cc(C2C(C#N)=C(N)Oc3n[nH]c(-c4cccnc4)c32)c1 (stereo not given) > 76.9 µM, CCOC(=O)N1CCC(NC(=O)C(Cc2ccccc2)NC(=O)c2ccco2)CC1 (stereo not given) > 76.9 µM, O=C(Nc1ccc2nc(-c3ccco3)[nH]c2c1)c1ccco1 > 76.9 µM, Cc1cc(C(=O)N2CCN(C/C=C/c3ccccc3)CC2)no1 > 76.9 µM, Clc1ccc(OCc2cn3cccnc3n2)c2ncccc12 > 76.9 µM, COc1cccc(NC(=O)Cc2nnc(SCCOc3ccccc3)n2C)c1 > 76.9 µM, CCN1CCN(c2nc3c(c(=O)n(C)c(=O)n3C)n2CCSc2ncccn2)CC1 > 76.9 µM, Cc1cccc(-c2nnc(N)s2)c1 > 76.9 µM, O=C(O)C1C2C=CC(C2)C1C(=O)N1CCN(CCO)CC1 (stereo not given) > 76.9 µM, N=c1ccccn1CC(O)COc1ccccc1 (stereo not given) > 76.9 µM, COCCCn1c(SCC(=O)N(C)C)nnc1-c1ccccc1 > 76.9 µM, CC(=O)Oc1ccc(/C=c2\sc3ncnn3c2=O)cc1 > 76.9 µM, COc1cccc(Nc2cc(C)nc3ccccc23)c1 > 76.9 µM, Cn1nnnc1SCC(=O)Nc1ccccc1Cc1ccccc1 > 76.9 µM, CCS(=O)(=O)N1CCC(NC(=O)C2CCCCC2)CC1 > 76.9 µM, CCOC(=O)CSC1=NC(=O)CS1 > 76.9 µM, CCOc1ccc(C(=O)c2ccncc2)cc1 > 76.9 µM, O=C1C2C3C=CC(C3)C2C(=O)N1c1n[nH]c(CCc2ccccc2)n1 (stereo not given) > 76.9 µM, Cc1ccnc(NS(=O)(=O)c2ccc(NC(=O)C3CCCCC3)cc2)n1 > 76.9 µM, CCc1cc(C(=O)OC)c(N2C(=O)C3C4C=CC(C4)C3C2=O)s1 (stereo not given) > 76.9 µM, CCOC(=O)c1c(C)c(C(=O)NCc2ccccc2OC)c(C)n1C > 76.9 µM, Cc1cc(C)cc(NC(=O)C2CCCN(c3nc(C)cc(C)n3)C2)c1 (stereo not given) > 76.9 µM, COc1cc(CN2CCC(C(=O)NC3CCCC3)CC2)cc(Br)c1O > 76.9 µM, Cc1nnc(SCC(=O)N2CC(=O)Nc3ccccc32)n1-c1ccccc1 > 76.9 µM, CCC1CCCN1Cn1cnc2c([nH]c3ccccc32)c1=O (stereo not given) > 76.9 µM, CCCN(CCC)CCNC(=O)C(NS(=O)(=O)c1ccc2c(c1)CCC(=O)N2)c1ccccc1 (stereo not given) > 76.9 µM, CCOC(=O)c1ccc(N2C(=O)CC(SCC(N)C(=O)OCC)C2=O)cc1 (stereo not given) > 76.9 µM, CCOC(=O)C1CCN(c2c(NCCCN(CC)c3ccccc3)c(=O)c2=O)CC1 > 76.9 µM, CN(c1cccc(NC(=O)c2ccccc2N(C)S(C)(=O)=O)c1)S(C)(=O)=O > 76.9 µM, COc1ccc(OC)c(-n2cnc3cc(C(=O)O)ccc32)c1 > 76.9 µM, Cc1[nH]nc(N=CC2=C(O)CC(C)(C)CC2=O)c1-c1ccccc1 > 76.9 µM, CCCCc1nc(SCC(=O)Nc2ccc(S(N)(=O)=O)cc2)n[nH]1 > 76.9 µM, O=C(Nc1ccc2c(c1)OCO2)C1CCN(S(=O)(=O)c2cccc3cccnc23)CC1 > 76.9 µM, C=CCOc1cccc(C2/C(=C(/O)c3ccc(Cl)cc3)C(=O)C(=O)N2CCN2CCOCC2)c1 (stereo not given), Cn1c(=O)c2c(nc(CN3CCN(C(=O)c4ccco4)CC3)n2Cc2ccc(Cl)cc2)n(C)c1=O > 76.9 µM, CCOC(=O)c1sc(N(Cc2ccccc2)C(=O)CN2C(=O)CN(C)C2=O)nc1C > 76.9 µM, CC1CN(S(=O)(=O)c2ccc(NC(=O)c3ccco3)cc2)CC(C)O1 (stereo not given) > 76.9 µM, CCN1CCN(Cc2ccccc2NC(=O)Nc2ccc(C)cc2)CC1 > 76.9 µM, O=C(NCC1COCCO1)C1CCN(S(=O)(=O)c2ccccc2)CC1 (stereo not given) > 76.9 µM, Cc1ccn2cc(CCNC(=O)CC(C)(C)C)nc2c1 > 76.9 µM, CC(NC(=O)Cc1ccc(F)cc1)C(c1cccs1)N1CCN(C)CC1 (stereo not given) > 76.9 µM, O=C(c1cn(-c2ccccc2)nc1-c1ccc(Cl)s1)N1CCOCC1 > 76.9 µM, O=C(NCc1ccco1)c1cnn2c(C(F)(F)F)cc(-c3cccs3)nc12 > 76.9 µM, COC(=O)CCCCC1SCC(NC(=O)OC)C1NC(=O)OC (stereo not given) > 76.9 µM, Nc1nnn(Cc2ccccc2)n1 > 76.9 µM, CC1CN(c2nc3ccccc3nc2C(C#N)C(=O)OC2CCCCC2)CC(C)O1 (stereo not given) > 76.9 µM, CC1CCCC(C)N1C(=O)CSc1nnc(NC(=O)Cc2cccs2)s1 (stereo not given) > 76.9 µM, Cc1cc2ccccn2c1C(=O)c1ccncc1 > 76.9 µM, O=C(COC(=O)Cn1cnc2ccccc21)Nc1ccc2c(c1)OCCO2 > 76.9 µM, CC1CCCN(c2nc3c(c(=O)n(C)c(=O)n3C)n2Cc2ccccc2)C1 (stereo not given) > 76.9 µM, O=C(Oc1ccccc1)c1ccc2nccnc2c1 > 76.9 µM, NC(=O)C1CCN(CC(=O)c2c[nH]c3ccc(F)cc23)CC1 > 76.9 µM, CC1CC(C)CN(CC(=O)N2CCc3[nH]c4ccccc4c3C2)C1 (stereo not given) > 76.9 µM, Cc1cc(C)c(NC(=O)CSc2nnc(Cc3cccn3C)n2-c2ccc(F)cc2)c(C)c1 > 76.9 µM, O=C(Nc1cccc2ccccc12)c1cnccn1 > 76.9 µM, CC(=O)Nc1nc(C)nc(-c2ccccc2OC(C)=O)n1 > 76.9 µM, CCCC(=O)NCc1nc2ccccc2n1C > 76.9 µM, Cc1cc(=O)[nH]c(SCC(=O)C23CC4CC(CC(C4)C2)C3)c1C#N > 76.9 µM, Cc1cccc(-n2c(Cc3cc(=O)[nH]c(=O)[nH]3)nnc2SCC(=O)NCc2ccco2)c1 > 76.9 µM, CCn1c(C)nc2cc(S(=O)(=O)N3CCCCC3)ccc21 > 76.9 µM, COc1ccc(-n2cnc3c(sc4nccc(N(C)C)c43)c2=O)cc1 > 76.9 µM, CCCCOC(=O)CN1C(=O)c2ccc(C(=O)OCCCC)cc2C1=O > 76.9 µM, CC1(C)CC(=O)C2=C(C1)NC(=O)CC2c1cc2c(cc1Br)OCO2 (stereo not given) > 76.9 µM, O=C(Cc1cccs1)Nc1nc(-c2ccccc2)cs1 > 76.9 µM, CCOc1ccc(-n2ccnc2SCC(=O)Nc2nnc(CC)s2)cc1, CCc1cc2c(=O)[nH]cnc2s1 > 76.9 µM, CSc1ccccc1NC(=O)CN(Cc1ccccc1)S(C)(=O)=O > 76.9 µM, COc1ccccc1Nc1nc(N)nc(CN(C)C2CCCCC2)n1 > 76.9 µM, Cc1cc(C(=O)OCC(=O)Nc2cc(C)on2)c2ccccc2n1 > 76.9 µM, COc1ccc(-c2nc3c(n2O)CCCC3=O)cc1OC > 76.9 µM, CC(C)C1CC(O)(C2(O)CCCCC2)ON1 (stereo not given) > 76.9 µM, Cc1cc(NC(=O)C2CC(=O)OC2c2ccccc2)no1 (stereo not given) > 76.9 µM, Cc1cc(C(=O)COC(=O)Cn2c(C(F)(F)F)nc3ccccc32)c(C)n1Cc1ccco1 > 76.9 µM, CCn1c(=O)cc(SCC(=O)Nc2ccccc2N2CCN(C)CC2)c2ccccc21 > 76.9 µM, Cc1c(NC(=O)COc2ncnc3c(Cl)cc(Cl)cc23)c(=O)n(-c2ccccc2)n1C > 76.9 µM, O=C(NCc1ccc2c(c1)OCO2)c1cccc(S(=O)(=O)N2CCCCC2)c1 > 76.9 µM, CCCOc1cccc(C(=O)N(Cc2ccco2)C2CCS(=O)(=O)C2)c1 (stereo not given) > 76.9 µM, CN(C)c1ccc(NC(=O)c2ccc(COc3cccc(Cl)c3)o2)cc1 > 76.9 µM, COC(=O)c1nc(NC(=O)C(C)(C)C)n[nH]1 > 76.9 µM, O=C(Nc1ccc2c(c1)OCCO2)C1CCN(c2nnnn2-c2ccccc2)CC1 > 76.9 µM, CCn1c(SCC(=O)Nc2nc(C)cs2)nnc1C(NC(=O)c1ccccc1Cl)C(C)C (stereo not given) > 76.9 µM, COc1ccc(-c2cc(C(=O)N3CCOCC3)no2)cc1OC > 76.9 µM, COc1cccc(C(=O)Nc2ncc3c(n2)CC(c2ccc(OC)cc2OC)CC3=O)c1 (stereo not given) > 76.9 µM, COc1ccc(OC)c(NC(=O)Cn2c(-c3ccc(Cl)cc3)noc2=O)c1 > 76.9 µM, COc1cccc2cc(C(C)=O)c(=O)oc12 > 76.9 µM
